Experimental data: US8188081B2, “Methods of treating inflammation using prokineticin 1 receptor antagonists” (Janssen Pharmaceutica, NV, priority 2005, dated 2012)

System: rat ileum mucosa

B1: PK1: recombinant human Prokineticin 1 expressed in HEK 293 cells, FLAG tag cleaved; mixture of full-length and four C-terminal residue truncated product (protein, UniProt P58294 20-105, looked up)
Prokineticin-1: AVITGACERDVQCGAGTCCAISLWLRGLRMCTPLGREGEECHPGSHKVPFFRKRKHHTCPCLPNLLCSRFPDGRYRCSMDLKNINF
modifications: mixture with C-terminal 4-residue truncated form
notes: recombinant human Prokineticin 1 expressed in HEK 293 cells, FLAG tag cleaved; mixture of full-length and four C-terminal residue truncated product
In the case of B1, the “concentration at which the maximal PK1-evoked response occurred” value is reported as 100 nM, the “effect on tissue conductance (G)” value is reported as “no significant effect” and the “increase in Isc from baseline” value (100 nM PK1, n=42 tissues from 29 rats) is reported as 28.7+/−2.9 μA/cm2. For the same molecule, the “time to peak Isc after single-dose addition” value (basolateral addition) was 2 to 4 min and the “change in Isc on addition to the mucosal tissue surface” value (mucosal (apical) addition, FIG. 2B) was “failed to evoke a change in Isc”.
